{"source": "PubChem BioAssay AID540317", "about": "(National Center for Advancing Translational Sciences (NCATS), 2011)", "note": "Values joined by “and” are separate entries in the source; they are usually repeats but may differ in a detail not shown here. Identical values can stand only once. The campaign covered roughly 390,000 compounds. About 2,200 (0.56%) were called active. The shares of active, inactive and inconclusive entries below differ from those in the screen. Calls come from the whole dose curve; as a rule, active = well fitted inhibition curve with a large enough effect; inconclusive = small, poorly fitted or top-dose-only effect; inactive = no such curve, though single readings can be large or run the other way. Where the call is inconclusive, the potency comes from a doubtful curve fit. Potency is the fitted concentration of half-maximal effect; tags give direction and shape of the fitted curve.", "data": [{"target": "Chromobox protein homolog 1 (Homo sapiens) (UniProt P83916)", "sequence (P83916 whole entry, looked up)": "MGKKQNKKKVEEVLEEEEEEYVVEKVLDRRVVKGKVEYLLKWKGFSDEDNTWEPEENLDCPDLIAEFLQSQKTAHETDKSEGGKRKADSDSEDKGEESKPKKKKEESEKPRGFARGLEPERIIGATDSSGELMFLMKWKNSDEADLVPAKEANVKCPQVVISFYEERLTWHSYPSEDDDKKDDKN", "test": "HTS for Inhibitors of HP1-beta Chromodomain Interactions with Methylated Histone Tails; note: nearly all actives have a fitted effect of over 70% in size", "details": "AlphaScreen HP1-beta / biotin-H3K9me3 peptide binding; series mostly up to 114 µM; activity change, negative = inhibition: at the top concentration", "outline": "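HP1-beta protein (50 nM final) preincubated 30 min at room temperature with biotinylated H3(1-18)K9me3 peptide (50 nM) in PBS pH 7.4, 0.01% Tween-20, then compound added for 30 min. AlphaScreen streptavidin donor/nickel chelate acceptor beads (10 ug/mL final), 30 min dark, luminescence read.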", "values": [{"compound": "Cn1nnnc1SCC1=C(C(=O)O)N2C(=O)[C@@H](NC(=O)[C@H](O)c3ccccc3)[C@H]2SC1", "Potency": "inconclusive: 20 µM [inhibitor, full curve]"}, {"compound": "CCC(=O)Nc1ccc(C(=O)COC(=O)c2nc3nccc(C)n3n2)cc1", "Potency": "inconclusive: 35.5 µM [inhibitor, partial curve]"}, {"compound": "O=C(N/N=C\\c1ccc(Cl)cc1)c1sccc1-n1cccc1", "activity change, negative = inhibition": "inactive: 25.6%"}, {"compound": "Cc1ccc(NC(=O)C2CCN(S(=O)(=O)c3c(C)noc3/C=C/c3ccco3)CC2)nc1", "Potency": "inconclusive: 28.2 µM [inhibitor, single point]"}, {"compound": "COc1ccc(CCNc2nc(-c3sc(N)nc3C)cs2)cc1OC", "Potency": "inconclusive: 56.2 µM [inhibitor, partial curve, poor fit]"}, {"compound": "COc1cccc(C2C(C#N)=C(N)SC(c3ccccc3)C2[N+](=O)[O-])c1", "note": "(stereo unspecified)", "activity change, negative = inhibition": "inactive: -12.9%"}, {"compound": "O=C(C1CCCN(S(=O)(=O)c2cccs2)C1)N1CCN(c2ccccc2F)CC1", "note": "(stereo unspecified)", "activity change, negative = inhibition": "inactive: 20.9%"}, {"compound": "COc1cc(/C=C/c2nc3ccccc3c(=O)[nH]2)cc(Br)c1O", "activity change, negative = inhibition": "inactive: 28.3%"}, {"compound": "COc1ccc(-c2nc3c(c(SCC(=O)Nc4cc(C)cc(C)c4)n2)Cc2c(CO)cnc(C)c2O3)cc1", "activity change, negative = inhibition": "inactive: 7.89%"}, {"compound": "CCN(CC)S(=O)(=O)c1ccc(O)c(NC(=O)COc2ccc(S(=O)(=O)N3CCOCC3)cc2)c1", "Potency": "inconclusive: 31.6 µM [inhibitor, single point]"}, {"compound": "Cc1ccc(CN(Cc2ccco2)C(=O)c2ccccc2Cl)o1", "activity change, negative = inhibition": "inactive: 9.88%"}, {"compound": "COc1ccc(C=C2C=C(C(C)(C)C)C(=O)C(C(C)(C)C)=C2)cc1OC", "Potency": "inconclusive: 20 µM [inhibitor, full curve, poor fit]"}, {"compound": "Cc1ccc(C)c(OCCOCCN2CC(C)OC(C)C2)c1C", "note": "(stereo unspecified)", "Potency": "inconclusive: 35.5 µM [inhibitor, single point]"}, {"compound": "O=C(Nc1ccc(C(F)(F)F)cc1)c1ccc2ncsc2c1", "activity change, negative = inhibition": "inactive: 27.7%"}, {"compound": "CCN1CCN(C(=S)NC(C)c2ccccc2)CC1", "note": "(stereo unspecified)", "Potency": "inconclusive: 39.8 µM [inhibitor, single point]"}, {"compound": "CC(C)n1cnc2c(NCc3ccccc3)cc(N[C@H](C)CO)cc21", "Potency": "inconclusive: 50.1 µM [inhibitor, partial curve]"}, {"compound": "Cc1cc(Nc2cccc(F)c2)nc(NCc2ccccc2)n1", "activity change, negative = inhibition": "inactive: 13.3%"}, {"compound": "O=C1c2ccccc2C(=O)c2c(NCCCN(CCO)CCO)cccc21", "Potency": "active: 25.1 µM"}, {"compound": "Cc1csc(NC(=O)c2cc(-c3ccco3)nc3ccccc23)n1", "Potency": "inconclusive: 35.5 µM [inhibitor, partial curve, poor fit]"}, {"compound": "Cc1nc(-c2ccc(F)cc2)c(CC(=O)N2CCN(S(=O)(=O)c3cccc([N+](=O)[O-])c3)CC2)s1", "Potency": "inconclusive: 50.1 µM [inhibitor, partial curve]"}, {"compound": "COc1ccc(N2CCN(CC(O)COc3ccc(C)c(C)c3)CC2)cc1", "note": "(stereo unspecified)", "Potency": "inconclusive: 50.1 µM [inhibitor, partial curve] and inconclusive: 31.6 µM [inhibitor, full curve]"}, {"compound": "COc1ccc(CCNC(=O)CSCc2ccc([N+](=O)[O-])cc2)cc1OC", "Potency": "inconclusive: 25.1 µM [inhibitor, single point]"}, {"compound": "CCCCN(CCCC)S(=O)(=O)c1ccc(NC(=O)c2c(-c3ccccc3)noc2C)cc1", "activity change, negative = inhibition": "inactive: 35.3%"}, {"compound": "O=C(CC1C(=O)OCC2CCCCN21)Nc1ccccc1C(F)(F)F", "note": "(stereo unspecified)", "Potency": "inconclusive: 15.8 µM [inhibitor, full curve]"}, {"compound": "CCOC(=O)C(=CNc1ccc(N2CCCCC2)c(S(=O)(=O)Nc2ccccc2OC)c1)C(=O)OCC", "Potency": "inconclusive: 22.4 µM [inhibitor, partial curve]"}, {"compound": "O=c1[nH]c(=S)[nH]c2sccc12", "Potency": "inconclusive: 56.2 µM [inhibitor, partial curve, poor fit]"}, {"compound": "CC(=O)c1cccc(OCC(O)CNCC2COc3ccccc3O2)c1", "note": "(stereo unspecified)", "Potency": "active: 50.1 µM"}, {"compound": "COc1cccc(CNC(C)C(=O)Nc2ccc3c(c2)OCCO3)c1", "note": "(stereo unspecified)", "Potency": "inconclusive: 44.7 µM [inhibitor, partial curve, poor fit]"}, {"compound": "Cc1ccc(CN2CCN(/N=C/C=C/c3ccccc3[N+](=O)[O-])CC2)cc1", "Potency": "active: 17.8 µM"}, {"compound": "CCN1C(=O)/C(=C/c2cc(C)n(C)c2C)SC1=Nc1ccc(OC)cc1", "Potency": "inconclusive: 17.8 µM [inhibitor, partial curve, poor fit]"}, {"compound": "COc1cc(/C=C2/C(=O)NN(c3ccc(F)cc3)C2=O)cc(Cl)c1O", "Potency": "inconclusive: 17.8 µM [inhibitor, full curve]"}, {"compound": "Cc1ccc(Cn2ncn(-c3ccccc3)c2=O)cc1", "activity change, negative = inhibition": "inactive: 49.5%"}, {"compound": "Cc1ccsc1/C=C/c1ccc2ccccc2n1", "activity change, negative = inhibition": "inactive: 162%"}, {"compound": "COc1ccc(Nc2ccc(N3C(=O)CCCC3=O)cc2[N+](=O)[O-])c(OC)c1", "Potency": "inconclusive: 22.4 µM [inhibitor, partial curve, poor fit]"}, {"compound": "Cc1ncc(CO)c(/C=N/NC(=S)Nc2ccc(F)cc2)c1O", "Potency": "inconclusive: 31.6 µM [inhibitor, partial curve]"}, {"compound": "S=c1nc(-c2ccccc2)[nH]n1-c1ccccc1", "Potency": "inconclusive: 35.5 µM [inhibitor, single point]"}, {"compound": "CSC1=C(C#N)C(c2ccccc2Cl)C2=C(N1)c1ccccc1C2=O", "note": "(stereo unspecified)", "Potency": "inconclusive: 50.1 µM [inhibitor, single point]"}, {"compound": "O=C(Nc1c2c(nn1-c1ccccc1)CS(=O)C2)c1ccc(Br)o1", "note": "(stereo unspecified)", "activity change, negative = inhibition": "inactive: 22%"}, {"compound": "COc1ccc(N2CCN(C3CCCN(S(=O)(=O)c4ccccc4)C3)CC2)cc1", "note": "(stereo unspecified)", "Potency": "inconclusive: 70.8 µM [inhibitor, partial curve]"}, {"compound": "CCOC(=O)C1(CC2CCCCO2)CCN(Cc2ccc(OC)cc2F)CC1", "note": "(stereo unspecified)", "Potency": "inconclusive: 44.7 µM [inhibitor, full curve]"}, {"compound": "CC1(C)Oc2ccc3ccc(=O)oc3c2/C(=C/Nc2ccc(O)cc2)C1=O", "Potency": "inconclusive: 15.8 µM [inhibitor, full curve, poor fit]"}, {"compound": "COC(=O)COc1ccc(/C=N/NC(=O)CN(c2ccccc2OC)S(=O)(=O)c2ccccc2)cc1", "Potency": "inconclusive: 89.1 µM [inhibitor, partial curve, poor fit]"}, {"compound": "Nc1nc2[nH]c(=S)[nH]c2c(=O)[nH]1", "Potency": "inconclusive: 14.1 µM [inhibitor, partial curve]"}, {"compound": "COc1ccccc1-c1nnc(SC/C(O)=C(\\C#N)c2nc3ccccc3[nH]2)n1C1CCCCC1", "Potency": "inconclusive: 28.2 µM [inhibitor, partial curve, poor fit]"}, {"compound": "COc1cc2c(cc1OC)-c1nnnn1C(C)(C)C2", "activity change, negative = inhibition": "inactive: 38.5%"}, {"compound": "CC1CCN(CCCNC(=O)c2ccc3c(=O)n(Cc4ccc(Cl)cc4)c(=S)[nH]c3c2)CC1", "Potency": "inconclusive: 56.2 µM [inhibitor, single point]"}, {"compound": "CCc1nnc(NS(=O)(=O)c2ccc(NC(=S)NC(=O)/C=C/c3ccc(F)cc3)cc2)s1", "Potency": "inconclusive: 50.1 µM [inhibitor, partial curve]"}, {"compound": "CCOc1ccc(C(C)NC(=O)c2ccccc2OCc2c(C)noc2C)cc1OCC", "note": "(stereo unspecified)", "activity change, negative = inhibition": "inactive: 22.2%"}, {"compound": "S=c1ncc2[nH]c(=S)[nH]c2[nH]1", "Potency": "inconclusive: 50.1 µM [inhibitor, partial curve, poor fit]"}, {"compound": "S=C(Nc1ccc2c(c1)OCO2)Nc1ccc2c(c1)OCO2", "Potency": "inconclusive: 50.1 µM [inhibitor, partial curve]"}, {"compound": "COc1ccc(NCc2nc3ccccc3n2CCOc2ccccc2C)cc1", "Potency": "inconclusive: 14.1 µM [inhibitor, full curve, poor fit]"}, {"compound": "O=C1C2C3C=CC(CNS(=O)(=O)c4ccccc4[N+](=O)[O-])(O3)C2C(=O)N1c1ccccc1", "note": "(stereo unspecified)", "Potency": "inconclusive: 50.1 µM [inhibitor, partial curve]"}, {"compound": "COc1ccc(/C=N/NC(=O)c2cccc(Br)c2)cc1COc1ccccn1", "activity change, negative = inhibition": "inactive: 16.5%"}, {"compound": "CC1CCCN(c2ccc(C(=O)NCc3ccc4c(c3)OCO4)cc2[N+](=O)[O-])C1", "note": "(stereo unspecified)", "Potency": "inconclusive: 22.4 µM [inhibitor, single point]"}, {"compound": "Cc1ccc2c(c1)c1c(n2C)-c2[nH]ncc2CC1", "Potency": "inconclusive: 35.5 µM [inhibitor, partial curve, poor fit]"}, {"compound": "Cc1ccc(S(=O)(=O)N2CCN(Cc3ccccc3C(F)(F)F)CC2)cc1", "Potency": "inconclusive: 12.6 µM [inhibitor, full curve]"}, {"compound": "NC(=S)N/N=C1/CCSc2ccc3ccccc3c21", "Potency": "inconclusive: 44.7 µM [inhibitor, partial curve]"}, {"compound": "CCOC(=O)C1=NN(c2ccc(C)cc2)C2(S1)SC(C(C)=O)=C(C)N2c1ccccc1", "note": "(stereo unspecified)", "Potency": "inconclusive: 28.2 µM [inhibitor, single point]"}, {"compound": "CCN(CC)c1ccc(NC(=O)CCS(=O)(=O)c2cccc3nsnc23)c(C)c1", "Potency": "inconclusive: 70.8 µM [inhibitor, partial curve]"}, {"compound": "Cc1cc(S(=O)(=O)Nc2cc3c(cc2C)n(C)c(=O)c(=O)n3C)ccc1F", "Potency": "inconclusive: 89.1 µM [inhibitor, single point]"}, {"compound": "CCOc1ccc(OCC)c(NS(=O)(=O)c2cccc3nsnc23)c1", "Potency": "inconclusive: 50.1 µM [inhibitor, partial curve, poor fit]"}, {"compound": "Cc1cc(C)c2c(=O)n(CC(=O)Nc3ccc(Cl)cc3)sc2n1", "Potency": "active: 7.94 µM"}, {"compound": "COc1cc(CN2CCC(C(N)=O)CC2)ccc1OCc1ccccc1", "Potency": "inconclusive: 79.4 µM [inhibitor, single point]"}, {"compound": "CC(C)c1ccc(NC(=O)CCCC(=O)NCCc2ccccc2)cc1", "activity change, negative = inhibition": "inactive: 49.1%"}, {"compound": "CC1=C(C(=O)Nc2ccc(Cl)cc2)C(c2cccs2)n2nc(SCc3cccc(Cl)c3)nc2N1", "note": "(stereo unspecified)", "activity change, negative = inhibition": "inactive: 9.82%"}, {"compound": "CCOC(=O)c1c(NC(=O)CSc2nnnn2-c2ccc(OC)cc2)sc(C)c1C", "Potency": "inconclusive: 10 µM [inhibitor, full curve]"}]}]}
